Values joined by “and” are separate entries in the source; they are usually repeats but may differ in a detail not shown here. Equal values may be shown once. About 16,000 (7.3%) of roughly 220,000 compounds were called active. The shares of active, inactive and inconclusive entries below differ from those in the screen. Calls come from the whole dose curve; as a rule, active = well fitted inhibition curve with a large enough effect (not every such curve was filed as active); inconclusive = small, poorly fitted or top-dose-only effect, or another doubt; inactive = no such curve, though single readings can be large or run the other way. Potencies of inconclusive entries are doubtful fits and often do not repeat. Some structures have more than one record in an assay (separate samples or runs), and their calls can disagree.
The compounds below were run against Aldehyde dehydrogenase 1A1 (Homo sapiens) (UniProt P00352) (assay: qHTS Assay for Inhibitors of Aldehyde Dehydrogenase 1 (ALDH1A1)). Conditions: Purified ALDH1A1, NADH fluorescence, propionaldehyde substrate; series mostly up to 75.3 µM; activity, negative = inhibition: at the top concentration.
Potency is the fitted concentration of half-maximal effect; tags give direction and shape of the fitted curve.
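Throughout, for activity, negative = inhibition: plate controls were no enzyme wells and a reference inhibitor.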

UniProt P00352, sequence (P00352 whole entry, looked up): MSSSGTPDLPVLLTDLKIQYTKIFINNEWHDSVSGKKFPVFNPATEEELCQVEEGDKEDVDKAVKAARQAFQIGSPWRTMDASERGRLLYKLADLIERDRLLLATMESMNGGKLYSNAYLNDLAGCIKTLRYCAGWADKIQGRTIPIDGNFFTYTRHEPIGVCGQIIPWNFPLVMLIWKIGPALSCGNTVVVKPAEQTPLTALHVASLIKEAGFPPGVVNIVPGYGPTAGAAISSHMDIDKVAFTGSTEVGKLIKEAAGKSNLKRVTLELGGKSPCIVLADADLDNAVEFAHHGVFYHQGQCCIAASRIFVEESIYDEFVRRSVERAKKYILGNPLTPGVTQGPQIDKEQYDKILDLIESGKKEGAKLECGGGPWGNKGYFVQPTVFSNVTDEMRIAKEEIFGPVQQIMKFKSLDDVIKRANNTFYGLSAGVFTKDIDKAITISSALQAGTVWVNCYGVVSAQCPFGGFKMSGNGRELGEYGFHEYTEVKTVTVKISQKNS

Row | SMILES | Potency | activity, negative = inhibition
1 | CCN(CC)C(=O)c1ccc(NC(=O)CSc2nnnn2-c2cc(OC)ccc2OC)cc1 | active: 8.91 µM | 
2 | O=C(Cl)c1ccccc1F | inconclusive: 39.8 µM [inhibitor, single point] | 
3 | Cc1sc2ccccc2c1CC1=NCCN1 | inconclusive: 28.2 µM [inhibitor, single point] | 
4 | CCCc1[nH]nc2c1C(c1ccc(OC)c(Cn3nnc4ccccc43)c1)C(C#N)=C(N)O2 (stereo not given) | inconclusive: 44.7 µM [inhibitor, single point] | 
5 | CSc1ccc(C(c2c(O)c3ccccc3oc2=O)c2c(C)n(C)n(-c3ccccc3)c2=O)cc1 (stereo not given) | inconclusive: 39.8 µM [inhibitor, single point] | 
6 | COc1cc(/C=N/n2cnnc2)ccc1OC(=O)N(C)C | inconclusive: 39.8 µM [inhibitor, single point] | 
7 | Cc1ccc(-c2nc3ccccc3c(=O)n2-c2cc(C)ccn2)cc1 | inconclusive: 35.5 µM [inhibitor, partial curve] | 
8 | Cc1cc(C=C2C(=O)NC(=S)NC2=O)c(C)n1C1CCCC1 | active: 7.08 µM | 
9 | Oc1ccc2c3c1OC1C(O)CC[C@]4(O)C(C2)N(CC2CCC2)CC[C@]314 (stereo not given in full) |  | inactive: -0.219%
10 | Cc1ccc2c(c1)N(N=O)CCC2 | inconclusive: 25.1 µM [inhibitor, partial curve] | 
11 | CCC(=NCc1ccco1)c1c(O)n(C2CCCCC2)c(=O)[nH]c1=O | inconclusive: 25.1 µM [inhibitor, single point] | 
12 | COc1ccc(C2(C#N)CCN(C)CC2)cc1 |  | inactive: -2.34%
13 | OC(COCc1ccc(Cl)cc1)CN1CC=C(c2ccccc2)CC1 (stereo not given) | inconclusive: 39.8 µM [inhibitor, single point] | 
14 | O=C(OCC(=O)c1ccc([N+](=O)[O-])cc1)/C(=C/c1ccc(Cl)cc1)NC(=O)c1ccccc1 | active: 7.94 µM | 
15 | C=C(Cl)CCl | active: 20 µM | 
16 | C/C=C\c1ccc(OC)cc1 |  | inactive: -5.11%
17 | CCC1(c2ccccc2)C(=O)N(COC)C(=O)N(COC)C1=O |  | inactive: 9.69%
18 | CC(C)(C)c1ccc(S(=O)(=O)N2CC3CC(C2)c2cccc(=O)n2C3)cc1 (stereo not given) | inconclusive: 39.8 µM [inhibitor, single point] | 
19 | COc1ccc2c3c1O[C@H]1C[C@H](O)C=C[C@@]31CCN(C)C2 |  | inactive: 4.93%
20 | CCCCCCn1c(O)c(C=NC2CCCCC2N)c(=O)[nH]c1=O (stereo not given) |  | inactive: -2.68%
21 | OC1/C(=C/c2ccc(C(F)(F)F)cc2)N2CCC1CC2 (stereo not given) |  | inactive: 5.45%
22 | C=Cn1ccnc1P(=S)(c1nccn1C=C)C1CCCCC1 |  | inactive: -14%
23 | [O-][Cl+]O |  | inactive: 3.29%
24 | CN(C)CC1CSCCC1(O)c1cccc(Cl)c1 (stereo not given) |  | inactive: -0.228%
25 | COc1ccc(CN2CCN(C(=O)Cc3ccccc3)CC2)c(OC)c1 | active: 17.8 µM | 

Row | SMILES | Potency | activity, negative = inhibition
26 | CCCNc1oc(-c2cccc3ccccc23)nc1C#N | inconclusive: 14.1 µM [inhibitor, partial curve] | 
27 | Cc1cccc(N2C(=O)/C(=C/c3ccc(CN(CCC#N)S(C)(=O)=O)o3)C(=O)NC2=S)c1 | active: 20 µM | 
28 | COc1c(C)cc(C(=O)C2CCCN(C3CCOCC3)C2)cc1C (stereo not given) | inconclusive: 39.8 µM [inhibitor, single point] | 
29 | O=C(CCl)c1ccc(Cl)cc1Cl | active: 0.158 µM | 
30 | O=C1NC(=S)NC(=O)C1C/C=C/c1ccccc1 | active: 28.2 µM | 
31 | C=CCN1C(=O)C2(C(C(=O)OCC)=C(N)Oc3c2c(=O)oc2ccccc32)c2ccccc21 (stereo not given) | active: 0.398 µM | 
32 | CN(C)C(=O)Oc1ccc(-c2cn3cc(C(F)(F)F)ccc3n2)cc1 | inconclusive: 20 µM [inhibitor, single point] | 
33 | CCCCC/C=C\C/C=C\CCCCCCCC(=O)NCCO | inactive | 
34 | Cc1nc2c(-c3ccccc3)c(C)nn2c(C)c1CCC(=O)N1CCC2(CC1)OCCO2 | inconclusive: 39.8 µM [inhibitor, single point] | 
35 | CCOc1ccc([N+](=O)[O-])cc1CNCCc1ccccc1 | inconclusive: 39.8 µM [inhibitor, single point] | 
36 | CN1CCN(c2ncc3ncc(=O)n(C)c3n2)CC1 | inconclusive: 28.2 µM [inhibitor, partial curve] | 
37 | CC(C)C(=O)NC(Oc1ccccc1Cl)C(Cl)(Cl)Cl (stereo not given) | inconclusive: 39.8 µM [inhibitor, single point] | 
38 | O=C1C=CC(=O)C(Cl)=C1 | active: 1.78 µM | 
39 | C[C@@]12CC[C@H]3[C@H](CCC4=CC(=O)CC[C@H]43)[C@H]1CC[C@H]2OC1(O)C(=O)c2ccccc2C1=O | active: 0.316 µM | 
40 | C/C=C1/CN2CC[C@]34C(=C(C=O)[C@@H]1C[C@H]23)Nc1c(O)cccc14 |  | inactive: 1.53%
41 | CC(=O)c1ccc(OC(NC(=O)c2ccco2)C(Cl)(Cl)Cl)cc1 (stereo not given) | inconclusive: 25.1 µM [inhibitor, single point] | 
42 | CN1C(=O)C(=Cc2ccccc2Oc2ccc(Cl)c(F)c2)C(=O)N(C)C1=O | inconclusive: 35.5 µM [inhibitor, single point] | 
43 | CC1CCC(C(C)C)C(OP(N)(=O)c2ccccc2)C1 (stereo not given) | inconclusive: 28.2 µM [inhibitor, single point] | 
44 | O=C1/C(=C\c2ccc3c(c2)OCO3)N2CCC1CC2 | inconclusive: 22.4 µM [inhibitor, single point] | 
45 | O=Cc1cn(Cc2c(F)cccc2Cl)c2ccccc12 | active: 3.16 µM | 
46 | COc1ccc(-c2cc(=O)c3c(OC)c(OC)c(OC)cc3o2)cc1 | inconclusive: 28.2 µM [inhibitor, partial curve] | 
47 | Cc1ccc(N=Cc2c(O)n(C)c(=O)n(C)c2=O)nc1 | inconclusive: 20 µM [inhibitor, partial curve] | 
48 | COC(=NC1CCCC1)C(O)c1c[nH]c2ccccc12 (stereo not given) | inconclusive: 35.5 µM [inhibitor, single point] | 
49 | Cc1occc1C(=O)N1CCC2(CC1)OCCO2 | inconclusive: 39.8 µM [inhibitor, single point] | 
50 | Cc1cc(C)cc(C(=O)OC2C[C@H]3CC[C@@H](C2)N3C)c1 (stereo not given in full) |  | inactive: 6.47%

Row | SMILES | Potency | activity, negative = inhibition
51 | Cc1ccc(-n2c(O)c(/C=N/NC(=O)c3ccncc3)c(=O)[nH]c2=O)cc1C | inconclusive: 25.1 µM [inhibitor, single point] | 
52 | CC[C@@]1(O)C(=O)OCc2c1cc1n(c2=O)-c2cc3ccccc3nc2C1 | inconclusive: 14.1 µM [inhibitor, partial curve] and inconclusive: 3.55 µM [inhibitor, full curve] | 
53 | CN1C(=O)C(=Cc2ccccc2OCc2ccc(Cl)cc2)C(=O)N(C)C1=O | active: 17.8 µM | 
54 | COc1ccc(-n2c(=S)[nH]c3c(sc(=S)n3-c3ccccc3)c2=O)c(OC)c1 | active: 3.16 µM | 
55 | COc1cc2c(cc1O)C[C@@H]1c3c(cc(O)c(OC)c3-2)CCN1C | inconclusive: 8.91 µM [inhibitor, single point] | 
56 | O=C(Cc1ccccc1)Oc1cccc(-n2cnnn2)c1 |  | inactive: -7.51%
57 | O=C1NC(=O)N(Cc2ccccc2)C(=O)/C1=C/N1CCCc2ccccc21 | active: 8.91 µM | 
58 | CCOC(=O)C1CCN(Cc2coc3ccc(Cl)cc3c2=O)CC1 | inconclusive: 39.8 µM [inhibitor, single point] | 
59 | Cc1sc2c(c1C)C(c1ccc(C(C)(C)C)cc1)=NCC(=O)N2CC(=O)Nc1nccs1 | inconclusive: 4.47 µM [inhibitor, partial curve] | 
60 | CCCCC/C=C\C/C=C\C/C=C\C/C=C\CCCCCC(=O)NCCO | inactive and active: 14.1 µM | 
61 | CC(C)c1ccc(C(O)(C(=O)O)c2ccc(C(C)C)cc2)cc1 |  | inactive: 6.16% [at 13.5 µM]
62 | CCN1CCN(C(=O)COc2ccc(S(=O)(=O)N(C)Cc3ccccc3)cc2)CC1 | inconclusive: 39.8 µM [inhibitor, single point] | 
63 | N#CC(C#N)=Cc1ccc(-c2ccccc2)o1 | inconclusive: 22.4 µM [inhibitor, partial curve] | 
64 | CCCC(c1nnnn1Cc1cccs1)N1CCN(c2nc3ccccc3s2)CC1 (stereo not given) | inconclusive: 39.8 µM [inhibitor, single point] | 
65 | COc1ccc(CN2C(=O)CC(=O)NC2=O)cc1 | inconclusive: 25.1 µM [inhibitor, partial curve] | 
66 | COc1ccc(C(=O)C2CN(C)CC2C(=O)c2ccc(OC)cc2)cc1 (stereo not given) | inconclusive: 15.8 µM [inhibitor, partial curve] | 
67 | CC(N)Cc1ccc(O)cc1 (stereo not given) |  | inactive: 2.75%
68 | CC(=O)c1ccc(-c2ccc(Cn3c(C)nc4cc(N)c(C)nc43)cc2)cc1 | inconclusive: 10 µM [inhibitor, partial curve] | 
69 | C[Se]C[C@H](N)C(=O)O | inconclusive: 7.94 µM [inhibitor, partial curve] | 
70 | Cc1ccc(-n2c(O)c(/C=N/NC(=O)c3ccncc3)c(=O)[nH]c2=O)cc1 | inconclusive: 14.1 µM [inhibitor, partial curve] | 
71 | COc1ccc(C(=O)CC2C(=O)N(C)C(=O)N(C)C2=O)cc1 | active: 17.8 µM | 
72 | Cn1c(CNC(=O)c2ccco2)nnc1SCC(=O)N1c2ccccc2Sc2ccccc21 | inconclusive: 39.8 µM [inhibitor, single point] | 
73 | CNC(C(=O)c1ccccc1)C(OC)c1ccc(C)cc1 (stereo not given) | inconclusive: 39.8 µM [inhibitor, single point] | 
74 | COc1ccc(CN2CCCCC2c2cccnc2)cc1C (stereo not given) |  | inactive: 2.22%
75 | CC1=NN(c2ccccc2)C(=O)C1/C=C1\C(=O)NC(=O)N(c2cc(C)cc(C)c2)C1=O (stereo not given) | inconclusive: 0.562 µM [inhibitor, partial curve, poor fit] | 
